Among all 48,000 compounds or so, about 550 (1.1%) were called active. Inconclusive results (about 4%) are left out. No stated cut-off is given here; in the data, active means potency below about 15 µM; inconclusive means mostly about 16 µM to 33 µM; inactive means weaker than that. Some of the results follow. Bounds are passed on as bounds.
Potency means the concentration at half of the fitted maximal effect.

The experiment concerns the target Lysosomal acid glucosylceramidase (Homo sapiens) (UniProt P04062). Put plainly: Glucocerebrosidase.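 Further: the screen sought inhibitors.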 To be noted: purified enzyme, resorufin glucoside fluorescence (screen aimed at inhibitors), 20 min. The essentials: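 Wild-type enzyme at 0.2 nM final in 50mM citric acid/KH2PO4, 10mM sodium taurocholate, 0.01% tween-20, pH 5.9, with resorufin beta-D-glucopyranoside at 30 uM final. Compounds titrated, 20 min at RT, red fluorescence read; AC50 from titration.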
UniProt P04062, sequence (P04062 whole entry, looked up): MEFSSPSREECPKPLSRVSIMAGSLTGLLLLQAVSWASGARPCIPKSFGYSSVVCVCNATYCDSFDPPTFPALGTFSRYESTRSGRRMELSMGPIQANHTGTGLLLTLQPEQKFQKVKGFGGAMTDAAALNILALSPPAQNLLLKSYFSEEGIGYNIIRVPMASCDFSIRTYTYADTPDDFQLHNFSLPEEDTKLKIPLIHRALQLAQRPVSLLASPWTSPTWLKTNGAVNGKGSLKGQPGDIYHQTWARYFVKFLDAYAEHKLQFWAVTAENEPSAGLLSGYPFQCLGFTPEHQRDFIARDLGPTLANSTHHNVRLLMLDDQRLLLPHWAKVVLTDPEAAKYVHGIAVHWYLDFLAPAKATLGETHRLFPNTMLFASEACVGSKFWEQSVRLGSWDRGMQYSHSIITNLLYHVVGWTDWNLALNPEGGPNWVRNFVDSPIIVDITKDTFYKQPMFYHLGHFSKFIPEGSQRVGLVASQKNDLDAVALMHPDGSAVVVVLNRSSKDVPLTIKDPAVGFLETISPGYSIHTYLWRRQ
Consider `Cc1cc(C)cc(OCc2nnc(SCC(=O)Nc3ccccc3)o2)c1`, for which the Potency was inactive: > 76.9 µM.
To `COC(=O)C1=C(N)Oc2cc(C)[nH]c(=O)c2C1c1cc(OC)c(OC)c(OC)c1` (centres undefined) belongs inactive: > 76.9 µM; to `COc1ccccc1NS(=O)(=O)c1ccccc1C#N`, inactive: > 76.9 µM.
As to `CCOc1ccc2ccccc2c1/C=N/n1cncn1`, the Potency is inactive: > 76.9 µM.
To `Cc1cc(C(=O)N2CCN(c3ccccc3)CC2)no1` belongs inactive: > 76.9 µM; to `NC(=O)c1ccccc1N=Cc1ccccn1`, inactive: > 76.9 µM.
For `CN(CC(=O)NC(=O)NCc1ccco1)Cc1nc2ccccc2c(=O)[nH]1`, the Potency is inactive: > 76.9 µM.
As for `CCCCOc1ccc(Cl)cc1CSc1nnc(C)n1N`, the Potency is inactive: > 76.9 µM.
To `CCCCn1c2c(c(=O)n(C)c1=O)C(c1ccc(OC)cc1)N1CCCCCC1=N2` (centres undefined) belongs inactive: > 76.9 µM.
With `COc1ccc(-c2csc(NC(C)=O)n2)cc1OC`, the Potency was inactive: > 76.9 µM.
For `COC(=O)c1cc(=O)nc2sccn12`, the Potency is inactive: > 76.9 µM.
For `CC[C@H](C)[C@H](NS(=O)(=O)c1ccc(C)cc1)C(=O)N1CCC(C(=O)N[C@@H](C)C(=O)O)CC1`, the Potency was inactive: > 76.9 µM.
`Cn1c(CCCOc2ccc(Cl)cc2Cl)nnc1SCC(=O)Nc1nccs1`: the Potency was inactive: > 76.9 µM.
Consider `Cc1ccc(O)c(NC(=O)c2ccco2)c1`, for which the Potency was inactive: > 76.9 µM.
To `CCOc1ccc2cc(C#N)c(SCC(=O)N3CCC(C)CC3)nc2c1` belongs inactive: > 76.9 µM; to `COc1ccc(CCNC2CCN(C)CC2)cc1OC`, inactive: > 76.9 µM; to `O=c1c2[nH]c3ccccc3c2ncn1CCN1CCOCC1`, inactive: > 76.9 µM.
Take `Cc1cc2cc(OCC(=O)O)ccc2n1C`: the Potency is inactive: > 76.9 µM.
For the compound `CC(=O)NC1CC2CCCC(C1)N2S(=O)(=O)c1ccccc1` (centres undefined), the Potency is inactive: > 76.9 µM.
As for `CN1CCN(C(=O)CN(c2cccc(Cl)c2)S(=O)(=O)c2ccccc2)CC1`, the Potency is inactive: > 76.9 µM.
To `COC(=O)CSc1nc(N2CCOCC2)c2c(c1C#N)CC(C)(C)N(C)C2` belongs inactive: > 76.9 µM.
In the case of `CCOC(=O)c1c(C)c(C(=O)NCCOC)c(C)n1CC`, the Potency result is “inactive”.
To `O=C(Cn1c(CN2CCCCC2)nc2ccccc2c1=O)NCc1ccco1` belongs inactive: > 76.9 µM.
On to `COc1ccc(OC)c(C2C(C(C)=O)=C(O)C(=O)N2Cc2cccnc2)c1` (centres undefined), for which the Potency is inactive: > 76.9 µM.
To `Cc1cc(OC(=O)c2ccc(S(=O)(=O)N(C)C)cc2)cc(=O)o1` belongs inactive: > 76.9 µM; to `CCCCn1c(SCC(=O)c2ccc(OC)cc2OC)nc2cc(S(N)(=O)=O)ccc21`, inactive: > 76.9 µM; to `Cc1cc(C)nc(-n2nc(C)c(C3(O)C(=O)Nc4ccccc43)c2N)n1` (centres undefined), inactive: > 76.9 µM.
To `CC(=O)c1cccc(NC(=O)C2CCCN(S(=O)(=O)c3ccc(F)cc3)C2)c1` (centres undefined) belongs inactive: > 76.9 µM; to `Cc1ccc(-c2nn3c(=O)c(C)nnc3s2)cc1`, inactive: > 76.9 µM.
Consider `CCCCCCS(=O)[C@H]1CS(=O)(=O)C[C@@H]1S(=O)CCCCCC` (some centres undefined), for which the Potency was inactive: > 76.9 µM.
To `CCCCOCCCNC1=NCCCCC1` belongs inactive: > 76.9 µM; to `CCOc1ccc2[nH]c(=O)c(CN(CCO)C(=O)c3ccc(Br)cc3)cc2c1`, inactive: > 76.9 µM; to `COc1cc(CN2CCN(c3cccc(Cl)c3)CC2)cc(OC)c1OC`, inactive: > 76.9 µM.
Turning to `COCCn1cc(C(=O)c2ccccc2OCC(=O)Nc2cc(C)on2)cc(C#N)c1=O`, the Potency was inactive: > 76.9 µM.
For the compound `O=C(CCCCCNc1nc(=S)[nH]c2ccccc12)N1CCN(c2ccccn2)CC1`, the Potency was active: 5.73 µM.
As to `Cc1oc(-c2ccc(Cl)cc2)nc1CN1CCC(C(=O)NCCCN2CCOCC2)CC1`, the Potency is inactive: > 76.9 µM.
To `COc1ccc(C(=O)OC(C)CN2CCOCC2)cc1OC` (centres undefined) belongs inactive: > 76.9 µM.
To `Clc1cc(Cl)c(OCc2nc(-c3ccccn3)no2)cc1Cl` belongs inactive: > 76.9 µM; to `CCCCN(CC)C(=O)CSc1cc(=O)n(C)c2ccccc12`, inactive: > 76.9 µM; to `CC(C)N(Cc1nc(-c2ccccc2)no1)C(=O)CSc1ccccc1`, “inactive”.
To `CN(c1cccc(NC(=O)Cc2ccccc2)c1)S(C)(=O)=O` belongs inactive: > 76.9 µM.
In the case of `CCc1nc2oc3ccccc3c(=O)c2c(=O)n1CCOC`, the Potency was inactive: > 76.9 µM.
Consider `OCc1cn(-c2ccccc2)nc1-c1ccc2c(c1)OCCO2`, for which the Potency was inactive: > 76.9 µM.
Consider `Nc1[nH]nc2nc(N3CCCC3)nc(-c3ccccc3)c12`, for which the Potency is inactive: > 76.9 µM.
To `O=C(c1ccc(Cl)cc1)N1CCC(c2nc(-c3cccs3)no2)CC1` belongs inactive: > 76.9 µM; to `O=c1nc(N2CCCCC2)nc2n1CCO2`, inactive: > 76.9 µM; to `CCN1CCn2c1nc(N1CCCCC1)nc2=O`, inactive: > 76.9 µM.
As to `CCN1CCN(c2nc3c(c(=O)n(C)c(=O)n3C)n2CCSc2nccc(C)n2)CC1`, the Potency was inactive: > 76.9 µM.
For `Brc1ccc(-c2nnc3n2-c2ccccc2CC3)cc1`, the Potency is inactive: > 76.9 µM.
To `COc1ccc2c(c1OC)CN(C)CCc1cc3c(cc1C(O)C2)OCO3` (centres undefined) belongs inactive: > 76.9 µM.
To `NS(=O)(=O)c1cccc2cccnc12` belongs inactive: > 76.9 µM.
To `Cc1nc2nc(COc3ccccc3)[nH]n2c(=O)c1C` belongs inactive: > 76.9 µM.
Take `CN(C)C(=O)N1CCCC(C(=O)NCc2ccccc2Cl)C1` (centres undefined): the Potency is inactive: > 76.9 µM.
To `COc1cccc(N2C(=O)CC(N3CCC(c4nc5ccccc5[nH]4)CC3)C2=O)c1` (centres undefined) belongs inactive: > 76.9 µM.
As to `CCN(CC)S(=O)(=O)c1ccc(-c2nnc(SCC(=O)c3ccc(OC)cc3)o2)cc1`, the Potency was inactive: > 76.9 µM.
To `O=C(Cn1nnc(-c2ccc(Cl)cc2)n1)NC1CC2CCC1C2` (centres undefined) belongs inactive: > 76.9 µM.
To `COCCSc1nnc(NC(=O)COC)s1` belongs inactive: > 76.9 µM.
For `O=C(Nc1ccc2nc(-c3ccccc3)oc2c1)c1ccco1`, the Potency is inactive: > 76.9 µM.
To `Cc1nn(-c2ccccn2)c2c1C(c1ccsc1)C1=C(CCCC1=O)N2` (centres undefined) belongs inactive: > 76.9 µM; to `CCCc1nnc(SCC(=O)Nc2ccc(OC)cc2)n1N`, inactive: > 76.9 µM; to `C=CCN=C(NC#N)SCC(=O)c1cccc(OC)c1`, inactive: > 76.9 µM.
To `CC(C)CCOc1cccc(OCC(=O)N(C)C2CCS(=O)(=O)C2)c1` (centres undefined) belongs inactive: > 76.9 µM; to `CCCNS(=O)(=O)c1ccc(CCC(=O)N2CCOCC2)cc1`, inactive: > 76.9 µM.
To `CCCn1c(SCC(=O)Nc2cccc(NC(C)=O)c2)nnc1C(C)C` belongs inactive: > 76.9 µM; to `CC1(C)Oc2ccc(C(=O)NC3CCCC3)cc2N(CC(=O)NC2CCCC2)C1=O`, inactive: > 76.9 µM.
Turning to `Cc1ccc(SCc2nc(-c3ccncc3)no2)cc1`, the Potency was inactive: > 76.9 µM.
In the case of `CCOCC(=O)Nc1ccc(F)c(F)c1`, the Potency is inactive: > 76.9 µM.
To `O=C(CCCCn1c(=O)[nH]c2ccccc2c1=O)NCc1ccc2c(c1)OCO2` belongs inactive: > 76.9 µM; to `O=C(O)[C@@H]1CSC2(CCSC2)N1` (some centres undefined), inactive: > 76.9 µM.
For `CCOc1ccc2nc(NC(=O)CN3CCN(c4ccccn4)CC3)sc2c1`, the Potency was inactive: > 76.9 µM.
To `Cc1cc(=O)[nH]c(SCC(N)=O)c1C#N` belongs inactive: > 76.9 µM; to `CCOC(=O)C1CCCN(S(=O)(=O)c2cccc3cccnc23)C1` (centres undefined), inactive: > 76.9 µM.
To `CC1=Nc2ccccc2N=C(NC(=O)CSc2nnnn2-c2ccccc2)C1c1ccccc1` (centres undefined) belongs inactive: > 76.9 µM; to `COc1cc2c(cc1OC)-c1cc(NCc3ccccn3)nc(=O)n1CC2`, inactive: > 76.9 µM; to `COc1cc(C(=O)NCc2nnc(SCC(=O)N3CCC(C)CC3)o2)cc(OC)c1OC`, inactive: > 76.9 µM.
To `COCCN(CCOC)C(=O)c1c[nH]c2ccc(S(=O)(=O)N(C)c3ccc(F)cc3)cc2c1=O` belongs inactive: > 76.9 µM; to `CSCC[C@H](NC(=O)OC(C)(C)C)c1nnc(SCC(=O)Nc2ccc(C)cc2C)o1`, inactive: > 76.9 µM; to `CCOC(=O)c1cc(NC(=O)SCC(=O)O)c(C)nc1C`, inactive: > 76.9 µM.
Regarding `CC1=C(C(=O)N2CCc3ccccc32)C2(CCC(C)CC2)OC1=O` (centres undefined), the Potency was inactive: > 76.9 µM.
To `CS(=O)(=O)N1CCN(c2nc3ccccc3s2)CC1` belongs inactive: > 76.9 µM; to `COc1ccc(CN2CC(C(=O)NCCCN3CCOCC3)CC2=O)cc1` (centres undefined), inactive: > 76.9 µM; to `CCOc1ccccc1Nc1nc2ccccc2[nH]1`, inactive: > 76.9 µM.
To `CCOC(=O)CSc1nnc(CNc2ccc(F)cc2)o1` belongs inactive: > 76.9 µM; to `O=C(CN1CCOCC1)Nc1ncc(Br)cc1Br`, inactive: > 76.9 µM; to `Clc1ccc2c(c1)C1OCCC1C(c1ccco1)N2` (centres undefined), inactive: > 76.9 µM.
To `CCOC(=O)Cn1nc(-c2ccccc2)nc1-c1ccccc1` belongs inactive: > 76.9 µM; to `COc1ccc(OC)c(N=Cc2c(O)[nH]c3ccccc23)c1`, inactive: > 76.9 µM.
As for `O=C(O)c1cccc2[nH]c(C(F)(F)F)nc12`, the Potency was inactive: > 76.9 µM.
`O=C(NCc1ccco1)c1cc(-c2ccco2)on1`: the Potency is inactive: > 76.9 µM.
To `CCC(=O)Nc1ccccc1N1CCN(S(C)(=O)=O)CC1` belongs inactive: > 76.9 µM.
To `COc1ccc(NC(=O)c2ccco2)cc1N` belongs inactive: > 76.9 µM; to `Cc1nnc(SCC(C)C)[nH]c1=O`, inactive: > 76.9 µM; to `CS(=O)(=O)Nc1ccc(C(=O)NCc2ccccn2)cc1`, inactive: > 76.9 µM.
As to `C=CCn1c(COc2ccccc2)nnc1SCC(=O)Nc1ccc(S(N)(=O)=O)cc1`, the Potency is inactive: > 76.9 µM.

(Values after PubChem BioAssay AID360 (National Center for Advancing Translational Sciences (NCATS), 2006).)
